Results from PubChem BioAssay AID463173 (ICCB-Longwood Screening Facility, Harvard Medical School, 2010).
The campaign covered roughly 52,000 compounds. About 1,700 (3.3%) were called active. Rule as the data show it: active = survival mostly below about 52% (no sharp cut-off); inactive = mostly above about 56%. The list shows a part of the results.

What follows are compounds tested on Wild type (assay: growth inhibition of S. aureus wild type versus tarO mutant, primary screen, teichoic acid synthesis inhibitors, RN4220, OD600 (AID 463173)). Details: S. aureus RN4220 wild type/DeltatarO growth, OD600, 18 h, hits give low values, screened at 18.75 µg/mL (by protocol).

| Compound | survival |
| --- | --- |
| Nc1cccc(-c2cn3ccccc3n2)c1 | inactive: 95% |
| COc1cccc(NC(=O)Cn2nnc(C(=O)NCCc3ccccc3)c2N)c1 | inactive: 148% |
| Cn1cnc2c(=O)oc3ccc(S(=O)(=O)N4CCN(c5ccccc5F)CC4)cc3c21 | inactive: 76% |
| O=C(Nc1cccc(C(=O)OCc2cc(=O)n3c4c(sc3n2)CCCC4)c1)c1cccc(Cl)c1 | inactive: 73% |
| COc1ccc(CCn2c(=O)c3cccnc3n(CC(=O)Nc3ccc(C)cc3C)c2=O)cc1OC | inactive: 80% |
| Cn1cc(C(=O)Nc2ccc(C#N)cc2)c2ccccc2c1=O | inactive: 89% |
| N/C(=N\OCC(=O)Nc1ccccc1)c1nonc1N | inactive: 106% |
| Cc1nc(-c2ccc(S(=O)(=O)N(Cc3ccccc3)C(C)C)cc2)co1 | inactive: 84% |
| CC(C)OCCCNC(=O)CCCn1c(SCC(N)=O)nc2c(sc3ccccc32)c1=O | inactive: 83% |
| O=C(CSc1nc2c([nH]c3ccccc32)c(=O)n1-c1ccc(F)cc1)NCc1ccc(F)cc1 | inactive: 73% |
| CCOc1ccc(CCNC(=O)c2ccc3c(c2)nc2n3CCOC2)cc1OCC | inactive: 63% |
| C=CCN=C1SC(C)C(=O)N1S(=O)(=O)c1ccccc1 (stereo not drawn) | inactive: 110% |
| Cc1ccc(Cl)cc1NC(=O)C1CCN(C(=O)c2cnn(-c3ccccc3)c2-n2cccc2)CC1 | inactive: 86% |
| CCN(CC)c1cc(C)c2cc(NC(=O)/C=C/c3ccccc3OC(C)C)ccc2n1 | inactive: 96% |
| Cc1ccc(Oc2nc3ccccn3c(=O)c2/C=C(\C#N)c2nc3ccccc3s2)c(C)c1 | inactive: 63% |
| CCN(CC)c1ccc(NS(=O)(=O)c2ccc(-c3coc(C)n3)cc2)c(C)c1 | inactive: 72% |
| Cc1cc(C)c2c(=O)c3c(oc2c1)C(=O)N(Cc1ccco1)C3c1ccc(F)cc1 (stereo not drawn) | inactive: 83% |
| Cn1c(=O)[nH]c(=O)c2c1nc(NNC=O)n2Cc1ccc(Cl)cc1 | inactive: 100% |
| CCOc1ccc(-c2cc(C(=O)NCCc3ccccc3)c3c(-c4ccc(C)cc4)[nH]nc3n2)cc1 | inactive: 128% |
| Cc1cc(-c2ccc(C)c(S(=O)(=O)N3c4ccccc4CC3C)c2)on1 (stereo not drawn) | inactive: 73% |
| O=C(NCc1ccc2c(c1)CCN2C(=O)c1ccc(Cl)cc1)c1ccco1 | inactive: 89% |
| CCOC(=O)c1c(NC(=O)/C=C/c2ccc(OCC)cc2)sc2c1CCCC2 | inactive: 78% |

| Compound | survival |
| --- | --- |
| O=C(Cn1c(=O)n(-c2ccccc2)c(=O)c2c3c(sc21)CCCC3)Nc1ccccc1 | inactive: 129% |
| Cc1ccc(C2C(C#N)=C(N)N(c3cccnc3)C3=C2C(=O)CCC3)s1 (stereo not drawn) | inactive: 113% |
| CC(=O)N1CCc2c(sc3c2c(=O)n(-c2cccc(Cl)c2)c(=O)n3Cc2ccc(F)cc2Cl)C1 | inactive: 77% |
| Cc1nn(C)c2c1c(C(F)(F)F)cc(=O)n2CC(=O)N1CCN(c2ccccc2F)CC1 | inactive: 72% |
| O=C(O)CSc1nnc(-c2ccc(O)cc2)o1 | inactive: 71% |
| CCOC(=O)c1noc2nc(C)n(CC(=O)Nc3ccc(OC)c(Cl)c3)c(=O)c12 | inactive: 80% |
| Cc1cc(N2CCC(C(=O)Nc3ccc(Cl)cc3)CC2)n2nc(C)c(-c3ccc(Cl)cc3)c2n1 | inactive: 80% |
| Cc1ccc(CC(=O)Nc2c(C(=O)N3CCN(c4ccccc4)CC3)oc3ccccc23)cc1 | inactive: 76% |
| CCOC(=O)CSc1nnc2n(-c3ccccc3)c(=O)c3c4c(sc3n12)COC(C(C)C)C4 (stereo not drawn) | inactive: 79% |
| CS(=O)(=O)c1ccc(-c2nnn(CC(=O)NC3CCCC3)n2)cc1 | inactive: 104% |
| S=c1[nH]c2ccccc2n1C1CCCCC1 | inactive: 114% |
| Oc1ccccc1C1NN=C(c2ccccc2)S1 (stereo not drawn) | inactive: 98% |
| CCCCN(CC)CCNC(=O)C1CCN(c2nnc(C)c3c(C)n(-c4ccc(C)cc4)nc23)CC1 | inactive: 80% |
| Cc1ccc(Cc2c(C)nc3c(-c4ccccc4)c(C)[nH]n3c2=O)cc1 | active: -11% |
| Cc1cc2c(cc3c(=O)n(CC(=O)NCc4ccccc4Br)ncn32)s1 | inactive: 80% |
| CCc1c(C)nc2nncn2c1NCc1ccc(OC)cc1 | inactive: 89% |
| Cc1[nH]c2ccc(CNS(=O)(=O)c3ccc(S(=O)(=O)N4CCOCC4)cc3)cc2c1C | inactive: 120% |
| Cc1ccc(-n2nc(C)c3c(C(=O)O)cc(C)nc32)cc1 | inactive: 84% |
| CC(CNC(=O)c1ccc2c(c1)nc1n2CCOC1)c1ccccc1 (stereo not drawn) | inactive: 71% |
| O=C(CCS(=O)(=O)c1cccc2nonc12)Nc1cccc(F)c1 | inactive: 68% |
| CC(C)NC(=O)CSc1nc2ccccc2c(=O)n1Cc1ccc(C(=O)NC(C)C)cc1 | inactive: 79% |
| Cc1cccc(C)c1OCCn1c(C2CC(=O)N(Cc3ccc(F)cc3)C2)nc2ccccc21 (stereo not drawn) | active: -4% |

| Compound | survival |
| --- | --- |
| CNCC(O)COc1ccccc1 (stereo not drawn) | inactive: 113% |
| CN(C)C(=O)COc1ccc(S(=O)(=O)c2ccc(OCC(=O)N(C)C)cc2)cc1 | inactive: 105% |
| O=C(CSc1nc(=O)[nH]c2c1CCC2)NCc1ccc(Cl)cc1 | inactive: 60% |
| O=S1(=O)C=C(Sc2nnnn2-c2ccccc2)c2ccccc21 | active: -1% |
| Cc1noc2ncnc(N3CCN(c4ccccc4F)CC3)c12 | inactive: 77% |
| CCSc1ncc(Cl)c(C(=O)Nc2ccc(S(=O)(=O)Nc3nccc(C)n3)cc2)n1 | inactive: 89% |
| Cc1ccc(Cl)cc1NC(=O)Cn1cc2c(n1)CCCCC2 | inactive: 82% |
| COc1ccc(CN(Cc2ccco2)c2cnc(S(C)(=O)=O)nc2C(=O)Nc2ccc(C)c(C)c2)cc1 | inactive: 83% |
| COC(=O)c1ccc(C(=O)Nc2ccc(-c3nc4cc(NC(=O)c5ccc(C(=O)OC)cc5)ccc4o3)cc2)cc1 | inactive: 81% |
| Cc1cccc(CSc2nc3cccnc3n2Cc2ccc(C(=O)NCc3ccco3)cc2)c1 | inactive: 89% |
| O=C(CCC1N=C2c3ccccc3N=C(SCc3ccccc3Cl)N2C1=O)N1CCN(c2ccccc2)CC1 (stereo not drawn) | inactive: 65% |
| Cc1ccc2cc3c(N)[nH]nc3nc2c1 | inactive: 101% |
| COC(=O)CC1Oc2ccc(C)cc2-n2cc(-c3ccc(F)cc3)nc21 (stereo not drawn) | inactive: 66% |
| COC(=O)c1ccc(NC(=O)c2cccc3c2C(=O)N(C2CCCCC2)C3)cc1 | inactive: 88% |
| Cc1ccc(C)c(NC(=O)CSc2ncc3c(n2)-c2cc(Cl)ccc2N(Cc2ccccc2F)S3(=O)=O)c1 | inactive: 71% |
| Cc1ccc(C)c(N2CCN(C(=O)CCn3c(=O)[nH]c4ccccc4c3=O)CC2)c1 | inactive: 113% |
| CCCSCCCNC(=O)c1cc2n(n1)CCCN(Cc1ccc(C)cc1)C2=O | inactive: 113% |
| COc1ccc(N2CCN(C(=O)c3cc(NS(=O)(=O)c4ccc(F)cc4)ccn3)CC2)cc1 | inactive: 53% |
| CCOc1ccc(CCNC(=O)CCN2N=C(c3ccc(OC)cc3)CCC2=O)cc1OCC | inactive: 55% |
| COc1ccc(-c2oc3ncn4nc(-c5ccccc5Cl)nc4c3c2-c2ccc(OC)cc2)cc1 | inactive: 78% |
| Cc1cc(Cl)ccc1NC(=O)CCn1nc(C)c2c(C)n(-c3ccccc3)nc2c1=O | inactive: 68% |
| Cc1nc(SCC(=O)OCN2C(=O)c3ccccc3C2=O)n[nH]1 | inactive: 106% |

| Compound | survival |
| --- | --- |
| Cc1cccc(OCCSc2nc3ccc(NC(=O)COc4ccccc4F)cc3s2)c1 | inactive: 92% |
| COc1ccc(Cn2ccc3nc(C)c(C(=O)NCc4ccc(C)cc4)cc3c2=O)cc1 | inactive: 47% |
| CC1(C)CC(=O)c2cc(-c3nc(-c4ccc(Cl)cc4)cs3)c(=O)n(-c3ccc(F)cc3)c2C1 | inactive: 76% |
| CCOc1ccc(NC(=O)Cn2cc(S(=O)(=O)N3CCN(c4ccccc4F)CC3)c3ccccc3c2=O)cc1 | inactive: 71% |
| O=C(NCCc1csc2nc(-c3cccc(F)c3)nn12)c1ccc(Br)o1 | inactive: 64% |
| COc1ccc(-c2noc(-c3ccc(N4CCC(C)CC4)c([N+](=O)[O-])c3)n2)cc1OC | inactive: 89% |
| COc1ccc(N(CC(=O)N2CCN(c3ccc(F)cc3)CC2)S(=O)(=O)c2c(C)n[nH]c2C)cc1 | inactive: 91% |
| CC1(C)Cc2c(c(-c3ccccc3)[nH]c(=O)c2C#N)CO1 | inactive: 104% |
| Cc1ccc(CNC(=O)CSc2nc3n[nH]c(C)c3c(=N)n2-c2cccc(C)c2)cc1 | inactive: 133% |
| CCCCNc1nc2c(c(=O)n(Cc3ccc(Cl)c(Cl)c3)c(=O)n2C)n1C | active: 1% |
| CCc1ccc(NC(=O)CCNS(=O)(=O)c2ccc3c(c2)CCCC(=O)N3)cc1 | inactive: 87% |
| COc1cccc(C(=O)Nc2c3c(nn2-c2ccc(Cl)cc2)CS(=O)(=O)C3)c1 | inactive: 84% |
| CCN(CC)C(C)C(=O)Nc1c(C)cccc1C (stereo not drawn) | inactive: 109% |
| Cc1ccc(CNC(=O)c2cccc(-n3cnc4cccnc43)c2)cc1 | inactive: 97% |
| CCOC(=O)c1scc(-c2ccccc2)c1S(=O)(=O)N1CCN(c2ccccc2OC)CC1 | inactive: 71% |
| COc1ccc(NC(=O)c2oc3ccc(S(=O)(=O)N(C)C4CCCCC4)cc3c2C)cc1 | inactive: 73% |
| Cc1ccc(NC(=O)C(Cc2ccccc2)n2cccc2)cc1C (stereo not drawn) | active: 13% |
| Cc1ccc(-c2nc3ccccn3c2Nc2ccc3c(c2)OCO3)o1 | inactive: 48% |
| O=C(/C=C/c1cn(CC(O)CN2CCCCCC2)c2ccccc12)c1ccc(Br)cc1 (stereo not drawn) | active: 14% |
| C=CCC(CC=C)(CNC(=O)C(=O)Nc1ccc(C(=O)OCC)cc1)c1ccccc1 | inactive: 93% |
| COC(=O)c1ccccc1NC(=O)c1cc2c(-c3ccc(OC)c(OC)c3)nn(C)c2s1 | inactive: 88% |
| CCOC(=O)c1cc(-c2ccc(C)cc2)n(CC(=O)NC2CCCCCC2)c1C | inactive: 92% |
